# The list shows a part of the results.
# Target: no compound (DMSO)
# Test: log2 fold change of degron read counts, EGFP-low vs EGFP+ sorted cells; higher = lower degron-EGFP level without compound (poor expression or instability)
# Details: compound: DMSO control; 18 h
# 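Also: jurkat cells carrying a lentiviral library of mutant zinc finger degrons fused to EGFP plus mCherry, mCherry+ cells FACS sorted, degron abundance counted by next-generation sequencing.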
row,Sequence,log2 fold change of degron read counts
1,FLCEICGRLFTQKGNLLRHIKL,-0.458
2,FWCNQCGAVFTQKGNLLRHIKL,1.14
3,FKCPICGAKFTQKGNLLRHIKL,-1.66
4,FQCPQCGAMFTQKGNLLRHIKL,-1.16
5,FSCNICGAGFTQKGNLLRHIKL,-0.237
6,FECEICGRPFTQKGNLLRHIKL,-1.39
7,LVCNQCGFRCTQKGNLLRHIKL,0.532
8,FRCNICGAPFTQKGNLLRHIKL,-0.107
9,FNCEICGASFTQKGNLLRHIKL,-1.27
10,FKCDVCGACFTQKGNLLRHIKL,-1.31
11,FDCPICGRRFTQKGNLLRHIKL,-0.262
12,FICSVCGHTFTQKGNLLRHIKL,-1.36
13,FYCNQCGASFTQKGNLLRHIKL,-0.0474
14,FVCNQCGANFTQKGNLLRHIKL,-1.51
15,FSCNVCGAKFTQKGNLLRHIKL,-0.594
16,LACPICGFLCTQKGNLLRHIKL,1.48
17,FDCPQCGARFTQKGNLLRHIKL,-0.899
18,FQCPQCGAAFTQKGNLLRHIKL,-0.83
19,FTCSVCGHTFTQKGNLLRHIKL,-1.28
20,FGCNQCGRGFTQKGNLLRHIKL,0.709
21,FCCEICGADFTQKGNLLRHIKL,-2.47
22,FMCDVCGADFTQKGNLLRHIKL,-1.1
23,FECEICGAEFTQKGNLLRHIKL,-2.6
24,LRCNQCGFACTQKGNLLRHIKL,0.953
25,FICEICGRPFTQKGNLLRHIKL,-0.964

row,Sequence,log2 fold change of degron read counts
1,FCCPQCGAYFTQKGNLLRHIKL,0.0398
2,LICEICGFCCTQKGNLLRHIKL,0.671
3,FFCPQCGADFTQKGNLLRHIKL,-2.13
4,FNCPVCGAHFTQKGNLLRHIKL,-0.273
5,FTCNQCGRVFTQKGNLLRHIKL,-0.377
6,FSCDICGAAFTQKGNLLRHIKL,-1.24
7,FRCEQCGASFTQKGNLLRHIKL,-2.22
8,FLCPICGARFTQKGNLLRHIKL,-0.381
9,FYCNQCGRGFTQKGNLLRHIKL,-0.147
10,FFCDICGAYFTQKGNLLRHIKL,-0.4
11,FMCPICGANFTQKGNLLRHIKL,-0.0201
12,FRCEICGAGFTQKGNLLRHIKL,-1.15
13,FGCNQCGADFTQKGNLLRHIKL,-0.491
14,FECEQCGAQFTQKGNLLRHIKL,-1.93
15,FNCDICGASFTQKGNLLRHIKL,-1.02
16,FFCNICGAYFTQKGNLLRHIKL,0.796
17,FECNICGAPFTQKGNLLRHIKL,-0.648
18,FYCDICGAMFTQKGNLLRHIKL,-0.345
19,LMCPICGFDCTQKGNLLRHIKL,1.04
20,FFCEICGRIFTQKGNLLRHIKL,-0.314
21,LKCPICGFVCTQKGNLLRHIKL,0.438
22,FFCDQCGADFTQKGNLLRHIKL,-1.65
23,FACPICGHFFTQKGNLLRHIKL,0.36
24,FTCPICGRHFTQKGNLLRHIKL,-0.198
25,FDCEICGHYFTQKGNLLRHIKL,0.926

# From the supplement of paper PMC12645437, “Orthogonal IMiD-Degron Pairs Induce Selective Protein Degradation in Cells” (ACS Chemical Biology, 2025)
